# Results published in PubChem BioAssay AID504332 (National Center for Advancing Translational Sciences (NCATS), 2011).
# “And” between values parts separate entries of the source, which are not always exact repeats. Identical values can stand only once. Out of some 350,000 compounds screened, about 31,000 (8.9%) were called active. Inconclusive results, whose numbers are uncertain, are shown with a selection of clear calls. Calls come from the whole dose curve; as a rule, active = well fitted inhibition curve with a large enough effect; inconclusive = small, poorly fitted or top-dose-only effect; inactive = no such curve, though single readings can be large or run the other way. Where the call is inconclusive, the potency comes from a doubtful curve fit.
# Molecular target: Histone-lysine N-methyltransferase EHMT2 (Homo sapiens) (UniProt Q96KQ7)
# Assay: qHTS Assay for Inhibitors of Histone Lysine Methyltransferase G9a; note: nearly all actives have a fitted effect of over 75% in size
# Conditions: G9a H3K9 monomethylation, AlphaScreen, 2 h; activity, negative = inhibition: at 59 µM (top of the series) unless noted
# Procedure, shortened: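 G9a (20 nM) was preincubated 15 min with compound, then reacted 2 h at room temperature with 500 nM biotin-H3K9 peptide and 20 µM SAM. Monomethyl-H3K9 detected by AlphaScreen using anti-H3K9me1 antibody.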
# % is set by controls: 0 for no effect and ±100 for the full control effect; potency is the fitted concentration of half-maximal effect; tags give direction and shape of the fitted curve.
# UniProt Q96KQ7, sequence (Q96KQ7 whole entry, looked up): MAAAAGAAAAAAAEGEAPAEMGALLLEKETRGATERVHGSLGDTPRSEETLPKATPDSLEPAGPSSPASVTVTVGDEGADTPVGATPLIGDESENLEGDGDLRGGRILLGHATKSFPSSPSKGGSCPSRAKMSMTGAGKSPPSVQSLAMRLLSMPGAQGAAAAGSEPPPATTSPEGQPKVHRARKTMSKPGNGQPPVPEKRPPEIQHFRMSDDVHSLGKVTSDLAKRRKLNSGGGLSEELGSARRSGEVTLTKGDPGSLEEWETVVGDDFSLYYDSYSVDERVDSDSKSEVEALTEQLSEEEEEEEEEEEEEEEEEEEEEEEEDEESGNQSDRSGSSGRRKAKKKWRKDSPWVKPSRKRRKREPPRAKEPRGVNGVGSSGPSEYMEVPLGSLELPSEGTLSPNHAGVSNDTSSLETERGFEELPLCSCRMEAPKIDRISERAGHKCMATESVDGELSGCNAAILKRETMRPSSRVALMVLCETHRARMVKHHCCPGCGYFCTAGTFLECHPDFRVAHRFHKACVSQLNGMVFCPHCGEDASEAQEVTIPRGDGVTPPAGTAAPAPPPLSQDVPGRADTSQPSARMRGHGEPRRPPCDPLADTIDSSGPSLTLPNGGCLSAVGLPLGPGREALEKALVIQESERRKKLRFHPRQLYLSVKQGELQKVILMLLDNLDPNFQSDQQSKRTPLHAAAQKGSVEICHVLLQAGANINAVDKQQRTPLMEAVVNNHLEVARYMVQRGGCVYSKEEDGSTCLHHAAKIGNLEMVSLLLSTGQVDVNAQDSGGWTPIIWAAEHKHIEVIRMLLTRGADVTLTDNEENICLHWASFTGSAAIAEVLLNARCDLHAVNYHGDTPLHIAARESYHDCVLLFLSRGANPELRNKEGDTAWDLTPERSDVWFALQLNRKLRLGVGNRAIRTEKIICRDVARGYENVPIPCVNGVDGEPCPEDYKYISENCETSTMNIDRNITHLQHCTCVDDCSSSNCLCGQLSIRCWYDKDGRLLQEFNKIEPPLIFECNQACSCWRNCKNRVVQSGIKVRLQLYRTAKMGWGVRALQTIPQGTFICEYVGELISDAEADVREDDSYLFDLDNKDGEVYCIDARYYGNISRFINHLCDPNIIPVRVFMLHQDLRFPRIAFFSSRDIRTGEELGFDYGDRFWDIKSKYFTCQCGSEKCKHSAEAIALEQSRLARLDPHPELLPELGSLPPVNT
SMILES,Potency,"activity, negative = inhibition"
NC(=O)c1sc2nc(-c3ccccc3)c3c(c2c1N)CCCC3,"inconclusive: 39.8 µM [inhibitor, single point]",
Cc1ccc(C(=O)OCC(=O)Nc2ccc3c(c2)OCO3)c(O)c1,"inconclusive: 3.16 µM [inhibitor, single point]",
CCc1ccc(CNC(=O)C2CCN(S(=O)(=O)N3CC(C)CC(C)C3)CC2)cc1 (centres undefined),,inactive: 1.91% [at 102 µM]
CCOC(=O)/C(=C\c1ccc([N+](=O)[O-])o1)NC(=O)c1ccccc1,"inconclusive: 89.1 µM [inhibitor, single point]",
Cc1cc(NS(=O)(=O)c2ccc(NC(=O)CSc3nnc(-c4ccco4)n3C)cc2)nc(C)n1,"inconclusive: 3.16 µM [inhibitor, single point]",
COc1ccc(C)c(S(=O)(=O)Nc2ccc(OCC(=O)O)cc2)c1,"inconclusive: 89.1 µM [inhibitor, single point]",
Cc1cccnc1NC(=O)C1CCN(S(=O)(=O)c2ccc3ccccc3c2)CC1,"inconclusive: 44.7 µM [inhibitor, partial curve, poor fit]",
COCCN=C1NN=C(c2ccc(NC(C)=O)cc2)CS1,"inconclusive: 10 µM [inhibitor, full curve, poor fit]",
COc1cc(/C=C2\CCOC2=O)cc(OC)c1OC,,inactive: 86.9% [at 102 µM]
Cc1ccc(-c2csc(N3CCN(c4ccc5nc(-c6ccncc6)n(CCN6CCCCC6)c5c4)CC3)n2)cc1,active: 35.5 µM,
COc1ccc(C(C(=O)NC2CCCC2)N(CCN2CCOCC2)C(=O)c2ccc(OC)c(OC)c2)cc1 (centres undefined),"inconclusive: 0.1 µM [inhibitor, full curve, poor fit]",
COc1ccc(C(=O)NCC(c2ccc(N(C)C)cc2)N2CCCC2)c(OC)c1 (centres undefined),"inconclusive: 31.6 µM [inhibitor, single point]",
O=c1[nH]nc(N/N=C/c2ccc(Cl)cc2Cl)c(=O)[nH]1,"inconclusive: 50.1 µM [inhibitor, partial curve]",
COc1ccc(-c2nc(CS(=O)CC(=O)N3CCCC3)c(C)o2)cc1 (centres undefined),"inconclusive: 28.2 µM [inhibitor, single point]",
CCCCCN(C(=O)COC(=O)Cc1c(C)nc2ccccc2c1C)c1c(N)n(CCCC)c(=O)[nH]c1=O,"inconclusive: 25.1 µM [inhibitor, single point]",
O=C1CCCC(O)=C1C=Nc1ccc(O)cc1,"inconclusive: 39.8 µM [inhibitor, partial curve, poor fit]",
C#CCOCCOCCOCCNc1nc(N2CCN(C(=O)[C@H](CCCCN)n3cc([C@@H](N)CC(C)C)nn3)CC2)nc(N2CCN(C(=O)[C@H](CCCCN)n3cc([C@@H](N)CC(C)C)nn3)CC2)n1,,inconclusive: -68.8% [inhibitor]
COc1cc(/C=N/NC(=O)CNC(=O)c2ccccc2)ccc1OC(=O)c1cccs1,"inconclusive: 39.8 µM [inhibitor, partial curve, poor fit]",
CC/C=C\C/C=C\C/C=C\C/C=C\C/C=C\C/C=C\CCC(=O)O,active: 25.1 µM and active: 7.08 µM,
CC(CCN1CCN(CCO)CC1)c1ccccc1 (centres undefined),active: 7.94 µM,
CCOC(=O)/C(C#N)=C/c1c(N2CCN(C)CC2)nc2c(C)cccn2c1=O,"inconclusive: 79.4 µM [inhibitor, single point]",
COc1ccccc1CN(C(=O)c1ccco1)C(C(=O)NC1CCCC1)c1ccncc1 (centres undefined),"inconclusive: 31.6 µM [inhibitor, single point]",
Cc1cccc(N2CCN(c3ccc(C(N)=O)cc3[N+](=O)[O-])CC2)c1C,"inconclusive: 2 µM [inhibitor, partial curve, poor fit]",

SMILES,Potency,"activity, negative = inhibition"
Cn1c(SCC(=O)c2ccc3c(c2)OCCO3)nnc1C1CC1,active: 22.4 µM,
Cc1ccc(C2c3[nH]c4ccccc4c3CCN2C(=O)Nc2ccc(C)c(C)c2)cc1 (centres undefined),,inactive: 1.11%
NC(=O)c1c(NC(=O)c2ccc([N+](=O)[O-])o2)sc2c1CCCC2,,inactive: 33.9% [at 102 µM]
COC(=O)c1c(NC(=O)c2c(-c3ccccc3Cl)noc2C)sc2c1CCC2,"inconclusive: 89.1 µM [inhibitor, single point]",
Cc1ccccc1OCCCCn1cnc2ccccc21,"inconclusive: 35.5 µM [inhibitor, single point]",
Cc1ccc2cc3cc(C(=O)NCCCN4CCCCCC4)oc3nc2c1,active: 44.7 µM,
Cc1ccc(Nc2nnc(SC(C)C(=O)Nc3c(C)n(C)n(-c4ccccc4)c3=O)s2)cc1 (centres undefined),"inconclusive: 39.8 µM [inhibitor, single point]",
O=C(OCCN1CCCCC1)c1cc2ccccc2o1,"inconclusive: 89.1 µM [inhibitor, single point]",
CCOC(=O)C(C)Sc1nnc2ccc3ccccc3n12 (centres undefined),,inactive: -8.65%
CC(C)Oc1cccc(C(=O)C2CCCN(Cc3cccn3-c3cccnc3)C2)c1 (centres undefined),"inconclusive: 44.7 µM [inhibitor, partial curve]",
CCc1nnc(NS(=O)(=O)c2ccc(N3C(=O)C4CC=C(Cl)CC4C3=O)cc2)s1 (centres undefined),"inconclusive: 79.4 µM [inhibitor, single point]",
CCN(CC)c1ccc(/C=N/Nc2nc(C)cc(C)n2)c(O)c1,"inconclusive: 3.98 µM [inhibitor, partial curve, poor fit]",
O=C1N/C(=C/c2ccc(N3CCOCC3)o2)C(=O)N1c1cccc(Cl)c1,"inconclusive: 8.91 µM [inhibitor, full curve, poor fit]",
CC(C)CNC(=O)c1cccc(NC(=O)c2ccccc2-c2ccccc2C(=O)O)c1,"inconclusive: 89.1 µM [inhibitor, single point]",
CCc1ccc(NS(=O)(=O)c2c(C(=O)N3CCCCCC3)c(C)n(C)c2C)cc1,,inactive: 7.25% [at 102 µM]
Cc1ccc2nc(NC(=O)CNS(=O)(=O)c3ccc(Br)s3)sc2c1,"inconclusive: 50.1 µM [inhibitor, partial curve]",
COc1ccc(/C=C/C(=O)N(C)CC(=O)Nc2cccc(F)c2)cc1S(=O)(=O)N1CCCCC1,"inconclusive: 50.1 µM [inhibitor, partial curve, poor fit]",
CC1CC(=O)Nc2ccccc2N1C(=O)CN1CCN(C=O)CC1 (centres undefined),,inactive: 0.752% [at 102 µM]
Cc1ccc(C(=O)NC(C)c2ccc(-n3ccnc3)cc2)c(C)c1 (centres undefined),"inconclusive: 28.2 µM [inhibitor, partial curve, poor fit]",
CCNc1nc(NC(C)C)nc(N(C#N)CCOc2ccccc2)n1,active: 12.6 µM,
CCOc1ccc(NC2c3ccccc3C(=O)N2Cc2ccco2)cc1 (centres undefined),active: 44.7 µM,
CC1=NN(C(=O)c2ccccc2F)C(O)(c2ccc(Cl)cc2)C1 (centres undefined),,inactive: 2.76% [at 102 µM]
CC1CCCCN1C(=S)NCc1ccccc1 (centres undefined),"inconclusive: 79.4 µM [inhibitor, single point]",

SMILES,Potency,"activity, negative = inhibition"
CCCCNC(=O)c1[nH]c2ccccc2c1Sc1ccc(C)cc1,"inconclusive: 3.98 µM [inhibitor, full curve]",
COc1ccc(N2CCN(C(CNC(=O)C(C)(C)C)c3ccco3)CC2)cc1 (centres undefined),"inconclusive: 31.6 µM [inhibitor, partial curve, poor fit]",
COc1ccc(C(=O)NNC(=O)C2(C)CC2(Br)Br)cc1 (centres undefined),"inconclusive: 79.4 µM [inhibitor, single point]",
Clc1ccc(-c2csc(N/N=C/c3ccc4c(c3)OCO4)n2)cc1,active: 39.8 µM,
CCCn1c(-c2ccc(F)cc2)n[nH]c1=S,active: 22.4 µM,
O=C(COC(=O)/C=C/c1cccc(C(F)(F)F)c1)Nc1cccc2ccccc12,"inconclusive: 39.8 µM [inhibitor, single point]",
CCCC(=O)Nc1c2c(nn1-c1ccc(C)cc1C)CSC2,active: 22.4 µM,
COc1ccc(CCNC(=O)c2coc3ccccc3c2=O)cc1OC,,inactive: -39.5% [at 102 µM]
CCCCNC1c2ccccc2C(=O)N1Cc1ccccc1 (centres undefined),,inactive: 2.38% [at 102 µM]
CCc1ccc(NC(=O)CSc2nccn2C2CCCC2)cc1,"inconclusive: 25.1 µM [inhibitor, partial curve, poor fit]",
Cc1ccc(C)c(S(=O)(=O)c2cnc(SCC(=O)Nc3ccc(F)cc3F)[nH]c2=O)c1,,inactive: -0.961%
Cc1ccc2c(c1)c(=O)c(C(=O)c1ccncc1)cn2CC(=O)Nc1c(C)cccc1C,,inactive: -19.4%
Cc1cc2c(=O)c(C(=O)c3ccncc3)cn(CC(=O)Nc3cccc(C)c3C)c2cc1C,,inactive: -20.6%
OC(CN1CCOCC1)(c1ccccc1)c1ccccn1 (centres undefined),"inconclusive: 79.4 µM [inhibitor, single point]",
COc1ccc(NC(c2ccc(F)cc2)c2nnc(-c3ccccc3Cl)o2)cc1Cl (centres undefined),"inconclusive: 8.91 µM [inhibitor, partial curve, poor fit]",
CC1CCN(C(=O)CCNC(=O)Cn2cnc3sc4c(c3c2=O)CCCC4)CC1,,inactive: -7.02%
C#CCOCCOCCOCCNc1nc(N2CCN(C(=O)Cn3cc(CC(C)O)nn3)CC2)nc(N2CCN(C(=O)[C@H](C)n3cc(CCCN=C(N)N)nn3)CC2)n1 (some centres undefined),active: 7.08 µM,
Cc1ccc2nc(N(Cc3cccnc3)C(=O)C3CCCCC3)sc2c1,,inactive: 9.3%
O=C(O)c1ccc(-c2ncc[nH]2)cc1,,inactive: -36.7% [at 102 µM]
CCN(Cc1ccccc1)C(=O)C1CCN(C/C(C)=C/c2ccccc2)CC1,active: 35.5 µM,
CC(C)(C)c1nc(NC(=O)Nc2ccccc2)sc1Br,"inconclusive: 44.7 µM [inhibitor, partial curve, poor fit]",
Cc1cccc(NC(=O)Cn2c(=O)oc3cc(S(=O)(=O)NCc4ccccc4)ccc32)c1,,inactive: 0.774%
O=c1cc(CSc2ccccn2)c2ccccc2[nH]1,"inconclusive: 3.55 µM [inhibitor, single point]",
